Data published in PubChem BioAssay (EPA / NIEHS).
The inconclusive results got no clear call from the source; some entries with a clear call stand among them for comparison. For part of these data: Potencies beside an inconclusive call are fits to weak or partial responses and may not hold up. Active and inactive are the calls of the source. Rule for the calls: active = hit-call score of the fitted dose curve at least 0.9, where 1 is the maximum; inconclusive = response in the unintended direction; inactive = score below 0.9.

What was measured:
[1] = target: Estrogen receptor beta (Homo sapiens) (UniProt Q92731); assay: ATG_hERb_XSP1: Attagene TRANS-FACTORIAL Multi-Species (XSP1) HepG2 Assay for human Estrogen Receptor (ESR2) (AID 2283788)
Sequence of UniProt Q92731 (Q92731 whole entry, looked up, the tested form may be a part): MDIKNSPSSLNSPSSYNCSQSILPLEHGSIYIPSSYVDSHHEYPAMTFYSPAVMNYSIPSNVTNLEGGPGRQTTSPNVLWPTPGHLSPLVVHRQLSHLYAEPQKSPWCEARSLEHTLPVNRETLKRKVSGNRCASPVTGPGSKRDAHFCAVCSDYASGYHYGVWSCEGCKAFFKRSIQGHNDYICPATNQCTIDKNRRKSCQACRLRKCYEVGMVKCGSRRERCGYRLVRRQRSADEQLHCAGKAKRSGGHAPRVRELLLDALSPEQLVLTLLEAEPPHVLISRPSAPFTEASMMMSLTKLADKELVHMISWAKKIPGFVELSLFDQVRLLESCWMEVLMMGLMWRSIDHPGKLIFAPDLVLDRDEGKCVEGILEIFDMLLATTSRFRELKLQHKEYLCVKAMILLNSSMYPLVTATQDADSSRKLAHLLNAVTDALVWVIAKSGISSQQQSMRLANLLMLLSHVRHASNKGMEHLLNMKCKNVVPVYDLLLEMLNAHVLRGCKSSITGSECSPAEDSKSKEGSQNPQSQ
Method in brief: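 Read-out: reporter mRNA induction by RT-PCR, HpaI digestion and capillary electrophoresis fluorescence, fitted in positive direction relative to DMSO baseline. Human liver HepG2 cells expressing ERβ-Gal4 fusion, dosed 24 h, medium containing 3 nM 6-alpha-fluorotestosterone.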

[2] = ATG_M_06_XSP1: Attagene TRANS-FACTORIAL Multi-Species (XSP1) HepG2 Assay for M06 Transcription Factor (Internal Marker) (AID 2283790)
Method in brief: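 Transfected HepG2 multi-reporter system treated 24 h in the presence of 3 nM 6-alpha-fluorotestosterone. The M06 internal marker transcript was quantified by RT-PCR with capillary electrophoresis as a background control, and gain of signal was scored versus DMSO.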

[3] = ATG_M_61_XSP1: Attagene TRANS-FACTORIAL Multi-Species (XSP1) HepG2 Assay for M61 Transcription Factor (Internal Marker) (AID 2283797)
Method in brief: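 HepG2 cells transiently transfected with multiplexed GAL4-driven reporter units, dosed 24 h with 3 nM 6-alpha-fluorotestosterone present. Reporter mRNA quantified by RT-PCR, 6-FAM labelling, HpaI digestion and capillary electrophoresis; internal-marker background control, gain of signal versus DMSO.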

[4] = ATG_M_32_XSP1: Attagene TRANS-FACTORIAL Multi-Species (XSP1) HepG2 Assay for M32 Transcription Factor (Internal Marker) (AID 2283799)
Method in brief: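 HepG2 cells transiently transfected with multi-species TRANS reporter units, dosed 24 h with 3 nM 6-alpha-fluorotestosterone present. Internal-marker reporter mRNA quantified by RT-PCR and capillary electrophoresis; positive-direction fit versus DMSO.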

[5] = target: Peroxisome proliferator-activated receptor gamma (Homo sapiens) (UniProt P37231); assay: ATG_hPPARg_XSP1: Attagene TRANS-FACTORIAL Multi-Species (XSP1) HepG2 Assay for human Peroxisome Proliferator-activated Receptor gamma (PPARg) (AID 2283800)
Sequence of UniProt P37231 (P37231 whole entry, looked up, the tested form may be a part): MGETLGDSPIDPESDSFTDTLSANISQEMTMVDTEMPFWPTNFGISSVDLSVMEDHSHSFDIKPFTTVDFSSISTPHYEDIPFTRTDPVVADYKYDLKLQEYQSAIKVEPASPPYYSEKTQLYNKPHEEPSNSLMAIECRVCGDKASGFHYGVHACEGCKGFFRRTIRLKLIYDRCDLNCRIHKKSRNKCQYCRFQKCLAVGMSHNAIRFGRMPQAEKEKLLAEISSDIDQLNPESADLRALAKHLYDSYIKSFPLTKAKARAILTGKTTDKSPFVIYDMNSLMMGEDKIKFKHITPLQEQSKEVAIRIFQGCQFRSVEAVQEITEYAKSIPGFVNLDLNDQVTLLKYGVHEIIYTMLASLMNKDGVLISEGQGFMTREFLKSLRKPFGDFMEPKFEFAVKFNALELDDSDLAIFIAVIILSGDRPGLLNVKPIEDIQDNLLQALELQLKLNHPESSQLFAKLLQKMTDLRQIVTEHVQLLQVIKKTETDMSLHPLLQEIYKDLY
Method in brief: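 HepG2 cells transiently transfected with GAL4-UAS reporter units carrying chimeric NR-Gal4 proteins; 3 nM 6-alpha-fluorotestosterone present. After 24 h dosing, reporter mRNA quantified by RT-PCR and capillary electrophoresis; gain of signal relative to DMSO.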

[6] = tested on: zebrafish Peroxisome Proliferator-activated Receptor gamma (PPARg), gene 557037; assay: ATG_zfPPARg_XSP1: Attagene TRANS-FACTORIAL Multi-Species (XSP1) HepG2 Assay for zebrafish Peroxisome Proliferator-activated Receptor gamma (PPARg) (AID 2283801)
Method in brief: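 HepG2 cells transiently transfected with GAL4-UAS reporter units including a zebrafish PPARg–GAL4 chimera, dosed 24 h with 3 nM 6-alpha-fluorotestosterone present. Reporter mRNA quantified by RT-PCR, FAM labelling, HpaI digestion and capillary electrophoresis; induction versus DMSO.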

[7] = target: frog Thyroid hormone Receptor alpha (TRa), thra-a (gene 397942) (UniProt P15204); assay: ATG_frTRa_XSP1: Attagene TRANS-FACTORIAL Multi-Species (XSP1) HepG2 Assay for frog Thyroid hormone Receptor alpha (TRa) (AID 2283804)
Sequence of UniProt P15204 (P15204 whole entry, looked up, the tested form may be a part): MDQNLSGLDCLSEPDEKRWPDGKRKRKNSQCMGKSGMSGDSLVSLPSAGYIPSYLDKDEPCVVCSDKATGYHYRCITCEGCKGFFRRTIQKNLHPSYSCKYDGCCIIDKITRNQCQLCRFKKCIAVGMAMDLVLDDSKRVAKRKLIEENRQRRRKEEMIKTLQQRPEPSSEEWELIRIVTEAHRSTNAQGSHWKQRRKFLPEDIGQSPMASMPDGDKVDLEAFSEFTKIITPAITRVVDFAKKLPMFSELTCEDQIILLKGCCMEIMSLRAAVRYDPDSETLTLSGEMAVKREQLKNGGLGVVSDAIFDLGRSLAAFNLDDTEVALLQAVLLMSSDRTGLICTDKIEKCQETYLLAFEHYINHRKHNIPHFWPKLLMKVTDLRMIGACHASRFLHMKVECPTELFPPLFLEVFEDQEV
Method in brief: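 HepG2 cells transiently transfected with frog TRa-GAL4 chimeric reporter units, dosed 24 hr with 3 nM 6-alpha-fluorotestosterone present; reporter mRNA quantified by RT-PCR, fluorescent labelling and capillary electrophoresis, gain of signal versus DMSO.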

[8] = target: human Thyroid hormone Receptor beta (TRb), THRB (gene 7068) (UniProt P10828); assay: ATG_hTRb_XSP1: Attagene TRANS-FACTORIAL Multi-Species (XSP1) HepG2 Assay for human Thyroid hormone Receptor beta (TRb) (AID 2283808)
Sequence of UniProt P10828 (P10828 whole entry, looked up, the tested form may be a part): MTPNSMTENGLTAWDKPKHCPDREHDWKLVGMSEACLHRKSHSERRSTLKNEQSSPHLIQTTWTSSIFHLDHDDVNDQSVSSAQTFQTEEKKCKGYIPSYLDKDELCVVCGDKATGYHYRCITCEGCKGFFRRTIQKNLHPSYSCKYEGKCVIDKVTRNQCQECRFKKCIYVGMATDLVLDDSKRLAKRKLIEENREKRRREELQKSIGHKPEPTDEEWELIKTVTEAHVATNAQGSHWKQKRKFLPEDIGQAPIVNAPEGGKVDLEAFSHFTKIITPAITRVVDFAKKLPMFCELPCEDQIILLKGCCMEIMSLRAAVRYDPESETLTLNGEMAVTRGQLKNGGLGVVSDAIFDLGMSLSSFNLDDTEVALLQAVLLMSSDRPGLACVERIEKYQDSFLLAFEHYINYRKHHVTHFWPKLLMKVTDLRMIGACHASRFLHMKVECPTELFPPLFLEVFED
Method in brief: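 HepG2 cells transiently transfected with reporter units driving GAL4-UAS reporters for chimeric NR-Gal4 proteins; 24 h chemical exposure with 3 nM 6-alpha-fluorotestosterone present. Reporter mRNA quantified by RT-PCR and capillary electrophoresis, gain of signal versus DMSO.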

[9] = ATG_XTT_Cytotoxicity_XSP1: Cytotoxicity Assessment in the Attagene TRANS-FACTORIAL Multi-Species (XSP1) HepG2 Assay (AID 2283810)
Method in brief: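 XTT viability readout taken at 24 hours post-dosing in HepG2 liver cells co-treated with 3 nM 6-alpha-fluorotestosterone. Signal loss relative to DMSO controls reflects cytotoxicity.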

[10] = target: GAL4 Transcription Factor (Internal Marker), GAL4 (gene 855828) (UniProt P04386); assay: ATG_GAL4_XSP2: Attagene TRANS-FACTORIAL Multi-Species (XSP2) HepG2 Assay for GAL4 Transcription Factor (Internal Marker) (AID 2283814);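 note: GAL4 reporter mRNA background control in MRTU transfected cells not a receptor target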
Sequence of UniProt P04386 (P04386 whole entry, looked up, the tested form may be a part): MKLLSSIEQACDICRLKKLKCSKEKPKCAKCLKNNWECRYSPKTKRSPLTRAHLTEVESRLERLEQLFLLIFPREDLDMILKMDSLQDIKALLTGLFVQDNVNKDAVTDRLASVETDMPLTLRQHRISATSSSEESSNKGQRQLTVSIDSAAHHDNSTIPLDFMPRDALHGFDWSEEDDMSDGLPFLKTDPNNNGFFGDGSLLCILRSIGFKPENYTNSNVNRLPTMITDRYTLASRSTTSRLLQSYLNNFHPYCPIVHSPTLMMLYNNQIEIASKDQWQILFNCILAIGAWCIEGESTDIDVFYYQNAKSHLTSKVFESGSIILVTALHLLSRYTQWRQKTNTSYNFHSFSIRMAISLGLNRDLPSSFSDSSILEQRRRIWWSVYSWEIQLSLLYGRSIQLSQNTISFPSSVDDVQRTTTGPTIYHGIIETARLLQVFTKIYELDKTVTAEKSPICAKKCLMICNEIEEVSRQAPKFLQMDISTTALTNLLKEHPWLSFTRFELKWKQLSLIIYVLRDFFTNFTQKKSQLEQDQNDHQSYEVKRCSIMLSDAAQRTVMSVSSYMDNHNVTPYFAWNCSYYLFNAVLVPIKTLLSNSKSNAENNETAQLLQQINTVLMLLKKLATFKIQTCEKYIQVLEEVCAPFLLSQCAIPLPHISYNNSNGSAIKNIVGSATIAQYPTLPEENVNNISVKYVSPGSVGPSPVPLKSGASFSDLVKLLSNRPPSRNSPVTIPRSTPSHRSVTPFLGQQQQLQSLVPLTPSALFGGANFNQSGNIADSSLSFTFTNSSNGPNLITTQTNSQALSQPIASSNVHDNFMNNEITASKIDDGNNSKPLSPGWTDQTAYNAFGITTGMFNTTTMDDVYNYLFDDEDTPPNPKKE
Method in brief: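 HepG2 cells transiently transfected with GAL4-UAS reporter units, stimulated with 3 nM 6-alpha-fluorotestosterone plus 1.5 nM norgestrel, dosed 24 h. Reporter mRNA by RT-PCR/capillary electrophoresis; gain-of-signal fit versus DMSO, background control.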

[11] = tested on: turtle Androgen Receptor (AR), gene 101947425; assay: ATG_trAR_XSP2: Attagene TRANS-FACTORIAL Multi-Species (XSP2) HepG2 Assay for turtle Androgen Receptor (AR) (AID 2283815);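 for AC50: reporter mRNA from a Gal4 chimera of turtle AR measured by RT-PCR; potency for gain of reporter signal meaning activation above DMSO baseline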
Method in brief: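 HepG2 cells transiently transfected with GAL4-UAS reporter units for chimeric NR-Gal4 receptors; 24 h dosing in presence of 3 nM 6-alpha-fluorotestosterone and 1.5 nM norgestrel. Reporter mRNA by RT-PCR and capillary electrophoresis, gain of signal versus DMSO.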

AR (gene 367) = AR (gene 367) (UniProt P10275); assay: ACEA_AR_antagonist_80hr: ACEA Biosciences xCELLigence Real-Time Cell Analysis on Androgen Receptor Antagonism for Proliferation (AID 2283787);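 note: 22Rv1 human prostate cancer cells with growth followed by electrical impedance; hits lower the impedance growth signal relative to DMSO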
Sequence of UniProt P10275 (P10275 whole entry, looked up): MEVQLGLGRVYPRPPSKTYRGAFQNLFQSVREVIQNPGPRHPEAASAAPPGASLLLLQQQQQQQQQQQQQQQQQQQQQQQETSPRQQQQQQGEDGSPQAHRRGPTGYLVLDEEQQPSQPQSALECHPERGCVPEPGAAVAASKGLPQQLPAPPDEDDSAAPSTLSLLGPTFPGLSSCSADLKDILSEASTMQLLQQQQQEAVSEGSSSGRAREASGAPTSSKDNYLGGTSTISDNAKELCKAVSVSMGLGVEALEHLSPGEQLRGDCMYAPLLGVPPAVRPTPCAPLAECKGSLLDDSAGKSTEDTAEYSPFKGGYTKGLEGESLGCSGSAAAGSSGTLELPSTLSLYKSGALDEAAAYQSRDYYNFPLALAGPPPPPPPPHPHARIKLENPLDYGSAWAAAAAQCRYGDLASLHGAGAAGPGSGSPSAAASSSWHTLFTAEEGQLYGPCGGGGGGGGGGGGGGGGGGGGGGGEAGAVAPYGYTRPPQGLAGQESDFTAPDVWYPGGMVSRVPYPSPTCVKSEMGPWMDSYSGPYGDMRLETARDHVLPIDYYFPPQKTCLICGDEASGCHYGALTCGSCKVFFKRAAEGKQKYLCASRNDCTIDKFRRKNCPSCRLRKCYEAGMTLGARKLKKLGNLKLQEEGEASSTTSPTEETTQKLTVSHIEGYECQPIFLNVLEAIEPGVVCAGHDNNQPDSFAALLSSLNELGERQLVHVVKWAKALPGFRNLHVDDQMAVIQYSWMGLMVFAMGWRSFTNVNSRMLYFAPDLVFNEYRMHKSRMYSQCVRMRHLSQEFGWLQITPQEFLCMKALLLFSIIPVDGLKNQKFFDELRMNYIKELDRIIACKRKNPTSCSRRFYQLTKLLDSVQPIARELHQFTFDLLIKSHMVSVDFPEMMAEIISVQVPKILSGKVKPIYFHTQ
Method in brief: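 Impedance readout (RT-CES), 80 h post-dose; loss-of-signal vs DMSO baseline. 22Rv1 cells in assay medium. Compounds: 8-pt 1:4 series, max 100 uM final, up to 0.5% DMSO; n = 2.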

[12] = target: GAL4 Transcription Factor (Internal Marker), GAL4 (gene 855828) (UniProt P04386); assay: ATG_GAL4_XSP1: Attagene TRANS-FACTORIAL Multi-Species (XSP1) HepG2 Assay for GAL4 Transcription Factor (Internal Marker) (AID 2283789)
Method in brief: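 HepG2 cells transiently transfected with multiplexed GAL4-UAS reporter units were exposed for 24 h with 3 nM 6-alpha-fluorotestosterone present. Reporter mRNA was quantified by RT-PCR, FAM labelling, HpaI digestion and capillary electrophoresis; background-control readout, gain-of-signal versus DMSO.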

[13] = ATG_M_06_XSP2: Attagene TRANS-FACTORIAL Multi-Species (XSP2) HepG2 Assay for M06 Transcription Factor (Internal Marker) (AID 2283811);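 note: hits are increases in signal above the DMSO baseline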
Method in brief: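 HepG2 cells transiently transfected with GAL4-UAS multi-reporter constructs, dosed 24 h with 3 nM 6-alpha-fluorotestosterone plus 1.5 nM norgestrel present to stimulate androgen receptor. Reporter mRNA quantified by RT-PCR, 6-FAM labelling, HpaI digestion and capillary electrophoresis; gain-of-signal fitted versus DMSO baseline.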

[14] = target: zebrafish Thyroid Hormone Receptor alpha (TRa), thraa (gene 30670) (UniProt Q98867); assay: ATG_zfTRa_XSP1: Attagene TRANS-FACTORIAL Multi-Species (XSP1) HepG2 Assay for zebrafish Thyroid Hormone Receptor alpha (TRa) (AID 2283807)
Sequence of UniProt Q98867 (Q98867 whole entry, looked up, the tested form may be a part): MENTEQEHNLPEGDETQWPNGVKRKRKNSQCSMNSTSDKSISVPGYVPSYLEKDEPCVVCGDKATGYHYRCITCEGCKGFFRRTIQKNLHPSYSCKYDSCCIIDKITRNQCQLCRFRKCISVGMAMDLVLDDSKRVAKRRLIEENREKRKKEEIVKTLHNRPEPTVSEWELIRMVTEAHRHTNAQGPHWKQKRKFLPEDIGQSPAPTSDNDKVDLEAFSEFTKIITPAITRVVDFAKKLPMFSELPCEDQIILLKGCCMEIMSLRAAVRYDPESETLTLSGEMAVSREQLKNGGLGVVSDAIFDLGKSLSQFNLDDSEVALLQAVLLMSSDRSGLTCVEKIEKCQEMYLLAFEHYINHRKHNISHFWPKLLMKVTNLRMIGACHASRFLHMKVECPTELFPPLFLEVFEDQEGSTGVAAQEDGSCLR
Method in brief: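 HepG2 cells transiently transfected with GAL4-UAS reporter units including a zebrafish TRa–Gal4 chimera, dosed 24 h with 3 nM 6-alpha-fluorotestosterone present. Reporter mRNA quantified by RT-PCR and capillary electrophoresis; gain versus DMSO.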

[15] = target: Estrogen receptor beta (Homo sapiens) (UniProt Q92731); assay: ATG_hERb_XSP2: Attagene TRANS-FACTORIAL Multi-Species (XSP2) HepG2 Assay for human Estrogen Receptor (ERb) (AID 2283813);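 note: actives raise reporter mRNA above DMSO so AC50 reflects agonist induction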
Method in brief: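 HepG2 cells transiently transfected with GAL4-UAS reporter units and chimeric human ERb-Gal4, 24 h exposure. Reporter mRNA quantified by RT-PCR with FAM labelling, HpaI digestion and capillary electrophoresis; gain of signal versus DMSO.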

[16] = tested on: turtle Thyroid Hormone Receptor, alpha (TRa), gene 101949057; assay: ATG_trTRa_XSP1: Attagene TRANS-FACTORIAL Multi-Species (XSP1) HepG2 Assay for turtle Thyroid Hormone Receptor, alpha (TRa) (AID 2283806)
Method in brief: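 HepG2 cells transiently transfected with GAL4-UAS reporter units and chimeric receptor-Gal4 constructs, with 3 nM 6-alpha-fluorotestosterone present. Reporter mRNA was quantified 24 h after dosing by RT-PCR, 6-FAM labelling and capillary electrophoresis; gain of signal versus DMSO.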

[17] = target: zebrafish Estrogen Receptor (ER1), esr1 (gene 259252) (UniProt P57717); assay: ATG_zfER1_XSP2: Attagene TRANS-FACTORIAL Multi-Species (XSP2) HepG2 Assay for zebrafish Estrogen Receptor (ER1) (AID 2283816)
Sequence of UniProt P57717 (P57717 whole entry, looked up, the tested form may be a part): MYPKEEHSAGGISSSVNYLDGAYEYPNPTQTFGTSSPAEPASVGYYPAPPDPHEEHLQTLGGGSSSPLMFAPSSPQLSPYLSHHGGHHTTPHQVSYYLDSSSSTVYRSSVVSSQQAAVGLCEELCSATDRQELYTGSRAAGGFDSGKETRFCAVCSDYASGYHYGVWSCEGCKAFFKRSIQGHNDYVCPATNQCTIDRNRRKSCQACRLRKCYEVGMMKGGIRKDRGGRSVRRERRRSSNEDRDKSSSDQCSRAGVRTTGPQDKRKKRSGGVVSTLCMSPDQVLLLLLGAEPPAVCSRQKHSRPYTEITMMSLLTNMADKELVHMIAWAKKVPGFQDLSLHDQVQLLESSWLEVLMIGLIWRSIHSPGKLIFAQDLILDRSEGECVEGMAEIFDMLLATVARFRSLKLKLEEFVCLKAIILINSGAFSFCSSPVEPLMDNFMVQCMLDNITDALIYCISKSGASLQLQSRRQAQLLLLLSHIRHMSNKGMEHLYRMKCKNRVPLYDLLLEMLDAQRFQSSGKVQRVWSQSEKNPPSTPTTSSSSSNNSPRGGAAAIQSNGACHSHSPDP
Method in brief: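 HepG2 cells transiently transfected with a GAL4-UAS reporter and a chimeric zebrafish ER1-Gal4 construct, dosed 24 h. Reporter mRNA quantified by RT-PCR, labelling, HpaI digestion and capillary electrophoresis, relative to DMSO.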

Measured: AC50

CCCOCC(=Nc1ccc(Cl)cc1C(F)(F)F)n1ccnc1
inconclusive: [1] 11.1 µM | [2] 11.1 µM | [3] 11.1 µM | [7] 11.1 µM | [10] 33.4 µM | [11] 3.3 µM
inactive: [4] | [6] | [8]
active: [5] 0.985 µM | [9] 100 µM

C=CC(=O)OCCCCCC(C)C
inconclusive: AR (gene 367) 0.0538 µM

O=C1c2ccccc2C(=O)C1C(=O)C(c1ccccc1)c1ccc(Cl)cc1 (stereo not drawn)
active: AR (gene 367) 25 µM

CON(C)C(=O)Nc1ccc(Cl)c(Cl)c1
inconclusive: [12] 100 µM | [4] 0.384 µM | [6] 100 µM | [8] 23.6 µM | [13] 100 µM | [11] 26.7 µM
inactive: [7] | [10]

COP(=S)(OC)Oc1ccc([N+](=O)[O-])c(C)c1
inactive: [12] | [4]
inconclusive: [7] 0.0574 µM | [10] 100 µM | [11] 23.5 µM

C#CCOS(=O)OC1CCCCC1Oc1ccc(C(C)(C)C)cc1 (stereo not drawn)
inactive: [8] | [10] | [11]
inconclusive: [12] 41.6 µM | [4] 100 µM | [7] 100 µM | [14] 100 µM | [9] 2.15 µM | [15] 100 µM
active: [6] 129 µM

CC(C)(C)c1ccc(CSc2cnn(C(C)(C)C)c(=O)c2Cl)cc1
inconclusive: [12] 100 µM | [4] 100 µM
active: [7] 0.148 µM
inactive: [6] | [10] | [11]

CCCN(CCOc1c(Cl)cc(Cl)cc1Cl)C(=O)n1ccnc1
inactive: [4] | [16] | [17]
inconclusive: [12] 60.1 µM | [2] 33.4 µM | [3] 33.4 µM | [7] 33.4 µM | [10] 33.4 µM | [11] 33.4 µM

CC1(C)C(C=C(Cl)Cl)C1C(=O)OC(C#N)c1cccc(Oc2ccccc2)c1 (stereo not drawn)
inactive: [12] | [8] | [11]
active: [5] 4.23 µM | [6] 3.54 µM
inconclusive: [2] 100 µM | [3] 100 µM | [7] 100 µM | [14] 11.1 µM | [9] 39.6 µM | [10] 24.7 µM | [17] 26.8 µM
